# The supplement of paper PMC11417369
# The list shows a part of the results.
# Test system: PfAP2-HC AP2 domain (GST-tagged)
# Assay: gcPBM binding intensity (ln(normalized median fluorescence intensity)); higher = stronger DNA binding
# Summary of the method: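 DNA-binding domains from P. falciparum, fused to GST and produced in E. coli, were put on an Agilent 4 × 180k double-stranded probe array for 1 h in 1× PBS holding 1% milk, 0.2 mg/ml BSA, 0.5% salmon testes DNA and 0.03% Triton X-100. Probes were primer-extended, 36 bp long and drawn from intergenic genomic regions, with negative controls included. After Alexa488 anti-GST antibody detection and a 488 nm scan, binding intensity was set as the highest Masliner-normalised natural-log median intensity across replicate spots of either probe orientation.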
row,Sequence,gcPBM binding intensity (ln)
1,TTTATATATAATGTTGCATGTCAAATTTGTATATGG [TGCATGCA_site246],9.55
2,TGTAGACATTAATGTAGTACAATATATATATATATT [XGTACX_site8608],10.1
3,TGTTCTTATACTAATAGTACTTTTAGGTACTATAAA [XGTACX_site2954],9.53
4,CCATAAAAAGGTACATGTACAAAAAGCAAAAATATG [XGTACX_site5543],10.2
5,ATATTTTTCCAACATCGTACATTATGAGTCAAAATT [XGTACX_site993],9.48
6,AATGTAAAACTAATATGTACATATCTCTAAAGAAAT [XGTACX_site8429],9.71
7,CGTACTAACATAAAGACACACACCACATATAATAAA [CACACA_site3603],10.3
8,ATTGTCTTCCTTCTGGTGCGATGTATAGGTAAAGAT,9.57
9,AACTCATCTTATAATTGTACATATTTATAAAAAGTA [XGTACX_site6522],9.45
10,TGTAGAAATGGGTGCACACACATATATAATATATAT [CACACA_site2507],10.1
11,AAAAAAAAAAAAAAAAAAAAAAAAAAAAAATATATA [GTGCAC_negctrl_site6],9.39
12,TTAGGGATGCTGAAATGTACACATTTAAATTATATA [XGTACX_site3000],9.67
13,GTATATATATATATATATATATATATATATATATAT [CACACA_negctrl_site609],9.41
14,TCTCCATCTTATGAGACATGCACTTTTTATTTAATA [TGCATGCA_site121],9.67
15,TGTGTATACTTGTGTATACCAAATTAAAGACGCTTT [CACACA_negctrl_site1359],9.56
16,AAAAAATAAAAAAGGTGGTCATGTCACAAATACTTT [XGTACX_site7454],9.82
17,TAAAAGTGATATGTTCGTACGTATTTATATGTAATA [XGTACX_site211],9.62
18,TTTTTCTTTTTTTGGGGTACAGGGAAATCTATATTT [XGTACX_site7025],9.67
19,TCTTAATTTTTGAAGGTACACACTAATATATTAAAT [CACACA_site1191],9.53
20,TTGTGTAAATGTTAAGTGCATTTGGTAAAATATAAA [GTGCAC_site9699],9.62
21,AAAAAAAAAAAAAAAACACACATACCCATATATTTT [CACACA_site6013],9.85
22,ATGATATGCAATTTAGTGCATAACAAAATTGGTATA,9.66
23,GGATATATTTTATGTACACACATATATAACGGATAT [CACACA_site4847],9.85

row,Sequence,gcPBM binding intensity (ln)
1,TTTTAAAAAAATAAATAAATAGAAAAAAAAAATAAA [TGCATGCA_negctrl_site579],9.53
2,TATTATGACTTAAGTTGTACTGTTGAAAGAAGAAAA [XGTACX_site2985],9.51
3,ATAATCCTTAAACACACACACACACTAATAAATAAA [CACACA_site8052],10.8
4,ATAAAAATTAAAGAATGTACACATATAATATATGTA [XGTACX_site8735],9.63
5,AAAAGTTATAGACACACACACATATAAATATAGATT [CACACA_site6617],10.4
6,TTGTTTCCTTAATATTCACACACATATATATAATAT [CACACA_site8553],10.1
7,TATAAATGTATACAAGTGCATATTATTCACACATAA,9.72
8,GAAATTATTATATAAACACACATTTATTTTATTTTA [CACACA_site1957],9.67
9,GTATTATACCATAATGCATGTTAACTTCAAAAGAAA [TGCATGCA_site839],9.54
10,CGTATAAATAAATACACACACATATAAATATGTAAA [CACACA_site6236],9.99
11,TAATATATTGTAGATGCATGCATTAACTATTACAAA [TGCATGCA_site190],9.75
12,TATCAATGGAAAATATATATTTGTATATATGTAATA [XGTACX_negctrl_site257],9.54
13,TATAAAAATAATATTACACACATGTAAAATGTCGGT [CACACA_site3264],9.91
14,ACACATGACATCCGTTGTACAATCATCATAAAAATG [XGTACX_site5397],9.8
15,AGCATTTATGAAAAATGTACACACATCAAATGCTTA [XGTACX_site8749],9.63
16,AAGCTACACATAGATTATTATTAATTTAATGTATAT [CACACA_negctrl_site548],9.53
17,TACGTGAAATTATATACACACATAAATATGTCTGTA [CACACA_site3122],9.85
18,ACAAGCTTTCATAAGGTGCAATGATTTAACAAAAAA [GTGCAC_site9726],9.48
19,AATTATTAGCGTGGTGTGCACAAAATTATGGACACA,10.1
20,TTTCCCTTAAATTAATGTACATAAATTGAAAATACC [XGTACX_site1602],9.34
21,TATATATTATACACGTGTACACATTATAACAATATA [XGTACX_site7799],9.78
22,TAAAATTTTTTTGTTTGTACATATATATATATAATA [XGTACX_site5609],9.53
23,AAAAAAAAAAAACACACACACAAAAAAAAATATATA [CACACA_site1105],11.3

row,Sequence,gcPBM binding intensity (ln)
1,AAAAAAATAAATAAATACATACATATATATATGTAT [GTGCAC_negctrl_site510],9.82
2,TTGCCCCAGGAGTTCACACACATAATAGATTGTCAC [CACACA_site726],10.1
3,AGCAACCCCCTAGCTACACACATATAGATATATATA [CACACA_site951],9.91
4,TATTCTATAAATATATTTTTTTAATTTTTTATTTTA [CACACA_negctrl_site307],9.42
5,AGGTGTATCATAAAATGTACATACATACATACATAA [XGTACX_site4479],9.71
6,AAAATGTGCTTTTCAGTGCAATTTTTTTTGTAATAA [GTGCAC_site9566],9.33
7,TTGTAATTCATTCAAATATAAAATAAATAAATATGA [CACACA_negctrl_site349],9.29
8,TATTATTATTTTTTATGTACTAACGACAAAAATATT [XGTACX_site252],9.52
9,TATGTAAAAAGAGAAAAAAAAAAGAACGATAATTTC [CACACA_negctrl_site946],9.58
10,ATATAAGAATTTAAGAGTACATTCACTTCAAATTTA [XGTACX_site2115],9.48
11,ATATAATATATTTTCACACATATTTTATGATGATAA [CACACA_site5614],9.46
12,ATAACATAACATAATACACACATATAAAAAAGAAAT [CACACA_site3028],10.1
13,AAATTTAATTTTATATCACACATTAAATTTTAATGG [CACACA_site4251],9.53
14,AAAAAAAAAAAAAAAGGTACAGTAAAAAATTCCTCT [XGTACX_site5947],9.48
15,AAAAAAATATATATATATATATATATATATATATAT [TGCATGCA_negctrl_site7],9.35
16,AAATATAATAATATATGTACATATATATATATATAT [XGTACX_site6980],9.59
17,TATGTATTAAATTTTACACACATGATTCTCTATATG [CACACA_site8720],10.1
18,TATACATATTATATATGTACACATATTATATGTATA [XGTACX_site5851],9.57
19,AATTTAAAAGCTTGTGGTACTTTTGCTCTTCCTTTG [XGTACX_site3148],9.65
20,TCAACAAATAAACTTTGTACATATATACAAAATATA [XGTACX_site4447],9.53
21,ATACAAAAAAGAAGGACACACAGAAGTAACATGTTA [CACACA_site3074],10.2
22,ATGAATTATATATTATGTACATATAATTAAAATATA [XGTACX_site7140],9.58
23,TTTAAAAAAAAAAAAAAAAATTAAATGAATTATTAA [CACACA_negctrl_site1121],8.95

row,Sequence,gcPBM binding intensity (ln)
1,TAACATGATATATAATGTACATATAAGATATTTATA [XGTACX_site4383],9.7
2,CGTGGGAGCGGACACACACACACACCCATATATATA [CACACA_site4340],10.4
3,ACAAATAAATAAAAATGTACAAATGAATACATCTTA [XGTACX_site3780],9.64
4,TTAAAAGATATTACATGTACATATTCAATATATGTA [XGTACX_site5895],9.53
5,TTTTTTTAAAAAAACAAAAAAAAAAAAAATATAAAA [TGCATGCA_negctrl_site511],9.06
6,TACATCGGTATATAAACACACAACAAAAATGCTTAC [CACACA_site5983],9.87
7,AAAATAATTAAAAAAAGTACTCGTAATATAAATATA [XGTACX_site4967],9.85
8,ATATTTTGTAATATTTGTACATATATTATACATATA [XGTACX_site963],9.72
9,AATAATGTATAATGATGTACAAAAAAGGAAGACATA [XGTACX_site2474],9.93
10,TTTTTTTTGCGTACAGTGCAAATTTATTTACTATTC,9.74
11,TACATTTATAATAATACACACATAAATTTACATTTT [CACACA_site3463],9.82
12,TATGAAAATTAAGTTTGTACACAAGTGGAAAAAAAA [XGTACX_site6129],9.87
13,AAAAAAAAAAAAAAAAAAAAAAAAAAAAAAAAAAAT [CACACA_negctrl_site882],9.42
14,TTTGTTATTTATTAGTGTACAAAAAAGCATTTCAAA [XGTACX_site8729],9.28
15,AAATTAAATAAATTTACACACTAAAAGTTACCTATA [CACACA_site6623],9.65
16,ATATAAAGAAATTAATTTTTCAACAATAAAAATATA [CACACA_negctrl_site1262],9.35
17,TATATATATATATATACACACATATATACCTATATA [CACACA_site6085],9.68
18,CATGTTCATCAGAACGCACACATAATGGTTTACTTA [CACACA_site898],9.82
19,AAGAAAAAAAAAATTACACACTGCGCACATACACAA [CACACA_site6721],10.6
20,GTGTATATGTATATATGTACATAAATTTTTTTTTTT [XGTACX_site7083],9.59
